According to ChEMBL document CHEMBL4888484, “Replenishing the malaria drug discovery pipeline: Screening and hit evaluation of the MMV Hit Generation Library 1 (HGL1) against asexual blood stage Plasmodium falciparum ,using a nano luciferase reporter read-out” (2022):
Among all 150,000 compounds or so, about 540 (0.36%) showed an effect of 50% or more. The list shows a part of the results.

System: Plasmodium falciparum
Test: Primary screen in NF54 nanoGlo assay, in single point, at 2uM, 72h; a lower Z score goes with more inhibition
Assay type: functional, Erythrocyte
Conditions: timepoint 72 hour

Structure (SMILES) | % Inhibition [%] | Z score
COc1cc(Cn2c(=O)c(C#N)c3n(c2=O)CCC3)c(OC)cc1Br | -2 | 0.37
O=C(Nc1ccc2oc(-c3cccc4ccccc34)nc2c1)c1cccc2c(Br)cccc12 | -31 | 3.59
CCn1cc(C(=O)N[C@@H]2[C@@H]3CCO[C@@H]3[C@@H]2C2CCCC2)cn1 | -2 | 0.27
COc1ccc(Cl)cc1C(C)N[C@@H]1C=C[C@H](CO)C1 (some centres undefined) | -7 | 0.86
COc1ccc(CCNC(=O)CN2CCC[C@@]3(CNC(=O)O3)C2)cc1 | -8 | 0.75
Cn1cnn(Cc2ccc(C#N)cc2Br)c1=O | 0 | -0.05
CC(C)Oc1cc(F)ccc1OCc1nnc(C2CC2)n1C | -8 | 1.35
COC1CCC(N(C)C(=O)CNC(=O)NCc2ccc(C)cc2)CC1 (centres undefined) | -11 | 1.17
CC(C)(C)C(=O)N1CC[C@@H](CC(=O)O)[C@@H](CC2=NCCc3ccc(C(C)(C)C)cc32)C1 | -11 | 1.86
N#Cc1cc2n(n1)CCN(C(=O)c1nc3ccc(Cl)cn3c1F)C2 | 2 | -0.45
Cc1cc(C)c2c(c1)C1(NC(C(C)O)[C@H]3C(=O)N(C4CCCCCC4)C(=O)[C@H]31)C(=O)N2 (some centres undefined) | -1 | 0.13
Cc1[nH]c2ncnc(NC(=O)c3ccncc3Cl)c2c1C | 11 | -0.98
Cc1ccc2c(c1C)NC(=O)[C@]21N2CCC[C@H]2[C@@H](C(=O)c2cc3ccccc3o2)[C@]12C(=O)Nc1ccccc12 | -17 | 2.18
COc1ccc(NC(=O)[C@H](C)n2nc(C)c3c(C)onc3c2=O)cc1OC | -4 | 0.35
COc1ccccc1OCCCNCCO | -12 | 2.33
CCn1cc(C(=O)Nc2cccnc2)c(C)n1 | 3 | -0.61
CC(=O)NCCCN(C)c1cncc(Br)c1 | -4 | 0.47
C=CCOc1ccc([C@H]2CC(=O)Nc3c2c(C)nn3-c2nc3ccc(C)cc3s2)cc1OC | -6 | 0.99
CC[C@]1(O)CCCN(C(=O)c2csc3c2CCN(Cc2c(C)noc2C)C3)C1 | 4 | -0.54
COc1ccc(CCNC(=O)CN2CCCC[C@H]2c2cccc(F)c2)cc1 | 0 | -0.03
C[C@@]1(C(=O)NCCc2nnc(N)s2)CCCO1 | -6 | 1.14

Structure (SMILES) | % Inhibition [%] | Z score
O=C(Cn1cncn1)N1CC[C@@]2(CCCN(CCC3CCCCC3)C2)C1 | 2 | -0.41
CN(C(=O)c1ccc2c(c1)OCO2)C1CCN(c2ccccn2)CC1 | -5 | 0.65
O=C(COc1ccc(Cl)cc1Cl)NC(=O)NC1CCCC1 | -15 | 2.42
NC(=O)c1cc(Cl)ccc1NCC(=O)NCc1ccc2c(c1)OCO2 | -10 | 1.31
O=S(=O)(c1ccc(F)cc1)N1CCC(n2cc(CCCO)nn2)CC1 | 14 | -1.75
O=C(COc1ccc(-n2cccn2)nn1)Nc1nccs1 | -12 | 2.34
Cc1c(-c2ccccc2F)[nH]c2ccc(CNC(=O)[C@H](C)N3CCCC3=O)cc12 | 7 | -1.24
O=C(NCCn1c(=O)[nH]c2ccsc2c1=O)c1ccc[n+]([O-])c1 | -3 | 0.63
C[C@H](NC(=O)CN1CCCS1(=O)=O)c1ccccc1 | -6 | 1.18
CCn1cnc2c(NC[C@H]3COCO3)ncnc21 | 4 | -0.73
Cc1cc(F)ccc1-n1cc(C(=O)N2CC3C(C2)C3(C)C)nn1 (centres undefined) | -6 | 0.9
O[C@H]1CC[C@@H](c2nc(-c3c[nH]c4ccccc34)n[nH]2)CC1 | -3 | 0.46
CC(C)CCN(CC(=O)N1CCc2sccc2[C@@H]1COc1ccccc1)C(=O)c1cccs1 | -2 | 0.26
CC(O)C(NC(=O)C1CCCC1)C(=O)NCC1CCc2ccccc21 (centres undefined) | -17 | 2.67
Cc1nc2cc(NC(=O)c3ccc4cc[nH]c4c3)ccc2[nH]1 | -1 | 0.15
COc1cccc([C@H]2CC(O)=Nc3nc(N4CCOCC4)sc32)c1OCC(C)C | -5 | 0.57
CCCc1ncc(C(=O)O[C@H]2CCC[C@@H]2OC)s1 | -5 | 0.86
Cc1cccn2c(CC(=O)NC(c3ccccn3)[C@H]3C[C@@H](O)C3)cnc12 (some centres undefined) | -15 | 1.81
CC1(C)CC(NC(=O)Cc2cccs2)CC(C)(C)N1 | -14 | 1.81
c1ccc(-c2csc(CN3CCC[C@@H]3Cn3cncn3)c2)cc1 | 5 | -0.75
CN(Cc1ccccc1O)C(=O)NCCC(c1ccccc1)c1ccccc1 | -5 | 0.57
